The full ranking holds about 16,000 sequences; the median of “Z-score” is about -0.37, and the highest 2% start at about 3.2. The list shows a part of the results.
The sequences below were run on RBM10 RRM1-ZnF (GST-tagged construct) (assay: RNAcompete 7-mer binding Z-score; higher = stronger binding preference).
Method in brief: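 A one-sided Z-score for enrichment, taken across the probes containing each heptamer motif, was assigned to every such motif. The RNA came from a designed pool of 241 399 sequences up to 41 nt (1.5 nmol), bound by 20 pmol of GST-tagged RBM10 constructs in 1 ml Hepes pH 7.8 buffer with glutathione Sepharose beads for 30 min at 4°C. Four 2-min washes at 4°C preceded identification of bound RNA by microarray hybridisation.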
In the case of CCAGCGU, the “RNAcompete 7-mer binding Z-score” value is reported as -0.578.
In the case of UAUAAGC, the “RNAcompete 7-mer binding Z-score” value is reported as -0.324.
GGACCCA was tested, and the “RNAcompete 7-mer binding Z-score” value was -0.194.
In the case of CUGUCAC, the “RNAcompete 7-mer binding Z-score” value is reported as -0.815.
In the case of CAUAACC, the “RNAcompete 7-mer binding Z-score” value is reported as -0.779.
With GAUAUGA the “RNAcompete 7-mer binding Z-score” value was 0.41.
In the case of ACAAGAG, the “RNAcompete 7-mer binding Z-score” value is reported as 0.456.
In the case of GUUCGCC, the “RNAcompete 7-mer binding Z-score” value is reported as -0.422.
With UUAGGUA the “RNAcompete 7-mer binding Z-score” value was 0.972.
In the case of AGGGCCG, the “RNAcompete 7-mer binding Z-score” value is reported as 0.407.
For UACCGAC, the “RNAcompete 7-mer binding Z-score” value was -0.737.
ACGGACG was tested, and the “RNAcompete 7-mer binding Z-score” value was 0.927.
In the case of UACGAAU, the “RNAcompete 7-mer binding Z-score” value is reported as -0.35.
In the case of AAAAGGU, the “RNAcompete 7-mer binding Z-score” value is reported as 2.33.
CUAUACC was tested, and the “RNAcompete 7-mer binding Z-score” value was -0.834.
With AACGUUG the “RNAcompete 7-mer binding Z-score” value was -0.106.
AGAAUAC was tested, and the “RNAcompete 7-mer binding Z-score” value was -0.438.
In the case of UGCAACA, the “RNAcompete 7-mer binding Z-score” value is reported as -0.425.
In the case of GAUCAAC, the “RNAcompete 7-mer binding Z-score” value is reported as -0.474.
With GGCUGUA the “RNAcompete 7-mer binding Z-score” value was 0.212.
For UGCACAC, the “RNAcompete 7-mer binding Z-score” value was -0.22.
UGUAAGA was tested, and the “RNAcompete 7-mer binding Z-score” value was 0.4.
For CUAUUGU, the “RNAcompete 7-mer binding Z-score” value was -0.685.
CCGUUAC was tested, and the “RNAcompete 7-mer binding Z-score” value was -0.808.
With ACAAACA the “RNAcompete 7-mer binding Z-score” value was -0.568.
UCGGGUA was tested, and the “RNAcompete 7-mer binding Z-score” value was 1.4.
UCUAGAG was tested, and the “RNAcompete 7-mer binding Z-score” value was -0.428.
CGGUCAA was tested, and the “RNAcompete 7-mer binding Z-score” value was -0.373.
With UAUAAAU the “RNAcompete 7-mer binding Z-score” value was -0.431.
With AAGCCAG the “RNAcompete 7-mer binding Z-score” value was -0.37.
In the case of CUAACAG, the “RNAcompete 7-mer binding Z-score” value is reported as -0.35.
With CAAGCAA the “RNAcompete 7-mer binding Z-score” value was -0.422.
With UAUACAC the “RNAcompete 7-mer binding Z-score” value was -0.655.
For CUGAGAC, the “RNAcompete 7-mer binding Z-score” value was -0.457.
In the case of GCCUCAA, the “RNAcompete 7-mer binding Z-score” value is reported as -0.759.
For CUGAGCC, the “RNAcompete 7-mer binding Z-score” value was -0.675.
For GUGUUGG, the “RNAcompete 7-mer binding Z-score” value was 2.15.
With UCGAGAU the “RNAcompete 7-mer binding Z-score” value was -0.35.
With GGCCCUC the “RNAcompete 7-mer binding Z-score” value was -0.607.
For GAGAGGA, the “RNAcompete 7-mer binding Z-score” value was 2.21.
In the case of CCUAGUU, the “RNAcompete 7-mer binding Z-score” value is reported as -0.724.
In the case of GAUCCCC, the “RNAcompete 7-mer binding Z-score” value is reported as -0.526.
CUUGUAG was tested, and the “RNAcompete 7-mer binding Z-score” value was -0.487.
UCCAGCA was tested, and the “RNAcompete 7-mer binding Z-score” value was -0.487.
In the case of UAUAAUU, the “RNAcompete 7-mer binding Z-score” value is reported as -0.399.
With UAGGUCU the “RNAcompete 7-mer binding Z-score” value was 0.179.
UGACGCU was tested, and the “RNAcompete 7-mer binding Z-score” value was -0.587.
For GUGUGCG, the “RNAcompete 7-mer binding Z-score” value was 1.43.
In the case of AUGUCUC, the “RNAcompete 7-mer binding Z-score” value is reported as -0.558.
For UGUCACC, the “RNAcompete 7-mer binding Z-score” value was -0.724.
For UAACAAC, the “RNAcompete 7-mer binding Z-score” value was -0.535.
For ACCCACC, the “RNAcompete 7-mer binding Z-score” value was -0.383.
For AAAAAUC, the “RNAcompete 7-mer binding Z-score” value was -0.626.
With UUCGGAU the “RNAcompete 7-mer binding Z-score” value was -0.347.
For GUAGUUG, the “RNAcompete 7-mer binding Z-score” value was 0.846.
In the case of CCCCUCA, the “RNAcompete 7-mer binding Z-score” value is reported as -0.581.
With ACGAUAG the “RNAcompete 7-mer binding Z-score” value was 0.316.
GACUAAG was tested, and the “RNAcompete 7-mer binding Z-score” value was 0.183.
In the case of UAAGCAA, the “RNAcompete 7-mer binding Z-score” value is reported as -0.214.
In the case of ACACUCG, the “RNAcompete 7-mer binding Z-score” value is reported as -0.324.
For AUCACAA, the “RNAcompete 7-mer binding Z-score” value was -0.428.
In the case of CGGAAGA, the “RNAcompete 7-mer binding Z-score” value is reported as 0.923.
With GGUCGGA the “RNAcompete 7-mer binding Z-score” value was 1.47.
In the case of GGGAAUU, the “RNAcompete 7-mer binding Z-score” value is reported as 2.4.
For CUGGGAC, the “RNAcompete 7-mer binding Z-score” value was 1.16.
In the case of CAGUUUG, the “RNAcompete 7-mer binding Z-score” value is reported as -0.272.
In the case of CACAGAG, the “RNAcompete 7-mer binding Z-score” value is reported as 0.095.
GUUCCAG was tested, and the “RNAcompete 7-mer binding Z-score” value was -0.23.
For AAUAAUU, the “RNAcompete 7-mer binding Z-score” value was -0.688.
For GUGCUAC, the “RNAcompete 7-mer binding Z-score” value was -0.0739.
For UCAAGGA, the “RNAcompete 7-mer binding Z-score” value was 0.891.
CCUAUUC was tested, and the “RNAcompete 7-mer binding Z-score” value was -0.928.
For CCCCGUC, the “RNAcompete 7-mer binding Z-score” value was -0.34.
For CUGGCUU, the “RNAcompete 7-mer binding Z-score” value was -0.558.
For CUAGUCA, the “RNAcompete 7-mer binding Z-score” value was -0.461.
In the case of GAGAAAC, the “RNAcompete 7-mer binding Z-score” value is reported as 0.166.
With AUCACCG the “RNAcompete 7-mer binding Z-score” value was -0.685.
With UUCCUCA the “RNAcompete 7-mer binding Z-score” value was -0.808.
In the case of CGUGCGA, the “RNAcompete 7-mer binding Z-score” value is reported as -0.301.
GCCAGCA was tested, and the “RNAcompete 7-mer binding Z-score” value was -0.392.
AGGUUCA was tested, and the “RNAcompete 7-mer binding Z-score” value was -0.0285.
With CAGCACA the “RNAcompete 7-mer binding Z-score” value was -0.659.
With GGGGUCA the “RNAcompete 7-mer binding Z-score” value was 2.86.
For AUAAAGU, the “RNAcompete 7-mer binding Z-score” value was -0.155.
For CGUGUUU, the “RNAcompete 7-mer binding Z-score” value was -0.435.
In the case of GUAUGGU, the “RNAcompete 7-mer binding Z-score” value is reported as 2.22.
With CAGACCC the “RNAcompete 7-mer binding Z-score” value was -0.568.
With GAGAAUC the “RNAcompete 7-mer binding Z-score” value was 0.0593.
With AAUGGUG the “RNAcompete 7-mer binding Z-score” value was 2.79.
CGCGAGA was tested, and the “RNAcompete 7-mer binding Z-score” value was -0.0285.
In the case of UACUUAG, the “RNAcompete 7-mer binding Z-score” value is reported as -0.396.
In the case of AUAAUCG, the “RNAcompete 7-mer binding Z-score” value is reported as -0.435.
